Data published in publication PMC4336329 (PLoS ONE, 2015).
Hit rate of the full screen: of about 310,000 compounds, about 2,200 (0.71%) showed an effect of 50% or more. The effect is printed as a negative number. The list shows a part of the results.

Target: human ether-à-go-go-related gene (hERG) potassium channel (human, UniProt Q12809)
Experiment: primary screen, population patch clamp on CHO cells stably expressing hERG

Sequence of human ether-à-go-go-related gene (hERG) potassium channel (Q12809 whole entry, looked up): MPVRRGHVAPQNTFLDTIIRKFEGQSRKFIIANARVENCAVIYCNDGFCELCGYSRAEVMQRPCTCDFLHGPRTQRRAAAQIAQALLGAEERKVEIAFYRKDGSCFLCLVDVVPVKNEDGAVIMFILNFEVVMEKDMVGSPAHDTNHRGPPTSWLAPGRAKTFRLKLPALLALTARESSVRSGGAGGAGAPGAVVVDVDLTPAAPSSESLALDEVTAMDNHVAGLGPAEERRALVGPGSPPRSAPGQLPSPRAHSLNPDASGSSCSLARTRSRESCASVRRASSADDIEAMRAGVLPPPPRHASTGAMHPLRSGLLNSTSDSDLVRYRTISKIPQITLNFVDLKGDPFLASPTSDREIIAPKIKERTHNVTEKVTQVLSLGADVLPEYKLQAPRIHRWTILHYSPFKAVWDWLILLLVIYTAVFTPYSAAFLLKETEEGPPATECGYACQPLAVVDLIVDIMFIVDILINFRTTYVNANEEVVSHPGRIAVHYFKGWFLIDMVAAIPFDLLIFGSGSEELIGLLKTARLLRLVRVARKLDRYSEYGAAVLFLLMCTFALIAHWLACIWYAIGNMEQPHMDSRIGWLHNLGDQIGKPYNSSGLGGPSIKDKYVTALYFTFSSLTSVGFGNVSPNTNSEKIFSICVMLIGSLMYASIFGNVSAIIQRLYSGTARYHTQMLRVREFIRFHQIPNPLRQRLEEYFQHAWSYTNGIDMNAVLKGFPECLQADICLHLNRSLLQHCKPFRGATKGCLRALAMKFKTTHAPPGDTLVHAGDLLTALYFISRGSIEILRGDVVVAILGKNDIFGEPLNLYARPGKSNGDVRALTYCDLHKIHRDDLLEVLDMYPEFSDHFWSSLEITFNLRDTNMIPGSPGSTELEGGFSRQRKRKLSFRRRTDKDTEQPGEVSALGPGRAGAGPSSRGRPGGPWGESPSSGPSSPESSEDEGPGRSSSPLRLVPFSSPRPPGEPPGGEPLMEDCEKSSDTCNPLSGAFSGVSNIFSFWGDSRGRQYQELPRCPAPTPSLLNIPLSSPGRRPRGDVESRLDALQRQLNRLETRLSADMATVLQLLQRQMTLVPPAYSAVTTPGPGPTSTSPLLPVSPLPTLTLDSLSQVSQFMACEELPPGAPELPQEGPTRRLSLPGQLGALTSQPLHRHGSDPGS

Point of comparison: `Cc1oc(-c2ccc(Cl)cc2)nc1CS(=O)CC(=O)NCc1ccccn1` (stereo not shown), “hERG current change (%, negative = inhibition) at 1uM” value 10.8%. Against it:
- N#Cc1cccnc1N1CCN(C(=O)COCC(=O)O)CC1 — higher, 13%
- COCC(C)n1c(C)cc(C(=O)COC(=O)c2ccc(N3CCCC3=O)cc2)c1C (stereo not shown) — higher, 16.5%
- CCOc1cc(/C=C2\SC(=S)N(NS(=O)(=O)c3ccc(C)cc3)C2=O)ccc1O — lower, 9.88%
- Cc1noc(C)c1S(=O)(=O)N1CCC(C(=O)N2CCN(c3ccc(Cl)cc3)CC2)CC1 — lower, 6.26%
- COc1ccc(C2C3=C(CCCC3=O)Nc3nc(C(F)(F)F)nn32)cc1OC (stereo not shown) — higher, 13.1%
- N/C(=N\NC(=O)Nc1ccc(Cl)cc1)c1ccccn1 — lower, -8.23%
- COc1ccc(Cc2[nH]n3c(=O)c(Cl)c(C)nc3c2-c2ccccc2)cc1 — higher, 16.8%
- O=C(c1ccc(F)cc1)C1CCN(C(=S)Nc2ccccc2)CC1 — lower, 3.76%
- Cc1nnc(N(Cc2ccco2)C(=O)c2cccc(C#N)c2)s1 — lower, 6.22%
- COC(=O)C(/C=N/O)NC(=O)c1ccccc1 (stereo not shown) — higher, 15.7%
- COc1ccc(N2CCN(C(=O)CSc3nc4cc(OC)c(OC)cc4cc3C#N)CC2)cc1 — lower, 6.4%
- Cc1noc(C)c1CN1C(=O)c2ccc([N+](=O)[O-])cc2C1=O — lower, 9.93%
- Cc1cc(C)c(NC(=O)CN2C(=O)NC3(CCCc4ccccc43)C2=O)c(Cl)c1 (stereo not shown) — higher, 12.7%
- COc1ccc(NC(=O)CSc2nnc(CN3CCOCC3)n2-c2ccccc2)cc1Cl — lower, -2.55%
- CCOC(=O)CSc1ncnc2c1cnn2-c1ccc(Cl)cc1 — lower, -0.206%
- CCCCN(C)CCCN1C(=O)C2C(C(=O)Nc3cccc(OC)c3)C3C=CC2(O3)C1C(=O)NC1CCCCC1C (stereo not shown) — higher, 13.1%
- CC(C)CNC1=C(C(=S)Nc2ccccc2)C(=O)CC(C)(C)C1 — higher, 13.7%
- O=C(NCCc1ccccc1)C(=O)NCC1OCCCN1S(=O)(=O)c1ccc(F)cc1 (stereo not shown) — lower, 3.24%
- N#C/C(=C\c1cccs1)C(=O)Nc1ccccn1 — lower, 4.17%
- COc1ccc(-c2csc(NC3OC(=O)c4c3ccc(OC)c4OC)n2)cc1OC (stereo not shown) — higher, 11.5%
- Cc1cccc(C)c1OCC(N)C(C)C.I (stereo not shown) — lower, -5.22%
- NC(=O)CC(NC(=O)Cc1cccc2ccccc12)c1ccc(NC2CCCCCCC2)c([N+](=O)[O-])c1 (stereo not shown) — lower, 6.37%
- CN1CCN(C(=O)C2(NC(=O)NCc3ccccc3)CCCCC2)CC1 — higher, 14.1%
- CCOc1ccc(C2NCCc3cc(OC)c(OC)cc32)cc1OC (stereo not shown) — lower, 10.2%
- Clc1c(-c2nnc3n2CCC3)sc2ccccc12 — higher, 14.5%
- COC(=O)c1cnn(-c2ccc(C)c(C)c2)c1-n1cccc1 — lower, 9.4%
- CCCC(C)c1nc(C(N)=O)c2[nH]c(=O)n(-c3ccc(OC)cc3OC)c2n1 (stereo not shown) — lower, 9.22%
- Clc1ccc(N2CCN(/N=C/c3cccnc3)CC2)cc1 — lower, 8.03%
- Cc1cc(C)c(S(=O)(=O)NCCn2c(C)cc3ccccc32)c(C)c1 — higher, 15.3%
- CCOC(=O)c1ccccc1NC(=O)COC(=O)CCC(=O)c1ccccc1 — lower, 10.2%
- CC(C)CCNC(=O)CCC(=O)NNc1nc2ccccc2c2nc(-c3ccccc3)nn12 — lower, 7.5%
- CCC(CC)NC(=O)Cn1c(C(C)NC(C)=O)nc2ccccc21 (stereo not shown) — higher, 11.9%
- Cn1nc(-c2ccccc2)c(C#N)c1Sc1cccc(Cl)c1 — lower, 10.4%
- O=C(CCS(=O)(=O)c1cccc2nsnc12)NC1CCCCCC1 — higher, 22.7%
- Clc1nc(NCc2cccnc2)nc(N2CCOCC2)n1 — lower, 10.1%
- O=C1CC(c2cccc(Cl)c2)Cc2nc(N3CCN(c4ccccc4)CC3)ncc21 (stereo not shown) — lower, 9.93%
- COc1ccc2c(c1OC)C(=O)OC2c1c(O)n(Cc2ccc(F)cc2)c(=O)[nH]c1=O (stereo not shown) — lower, 4.88%
- O=C(COC(=O)Cc1ccsc1)Nc1ccccc1Cl — lower, 2.57%
- O=C(CN1CCN(c2ccccc2O)CC1)NC(=O)NCc1ccccc1 — lower, 10.5%
- Cc1ccsc1/C=N/NC(=O)c1cccc(S(=O)(=O)Nc2ccccc2Cl)c1 — lower, 5.81%
- COc1ccc(OC)c(S(=O)(=O)N2CCN(c3ccccc3)CC2)c1 — lower, 4.86%
- O=C(Oc1ccc(Br)cc1C(=S)N1CCCC1)c1ccccc1F — higher, 12.7%
- COC(=O)CS(=O)(=O)c1ccc(C)cc1 — higher, 18.5%
- CS(=O)(=O)c1ccc(Cl)c(NC(=O)COC(=O)c2ccc(F)cc2Cl)c1 — lower, 2.91%
- COc1ccc(NC(=O)CSc2nnc(CNC(=O)c3ccco3)o2)cc1 — higher, 12%
- c1ccc(CNc2nc(NCc3ccco3)nc(N3CCOCC3)n2)cc1 — lower, 2.88%
- Cc1ccc2nc(SCCC#N)nc(C)c2c1 — lower, 10.5%
- O=C(CC(Cc1ccccc1)C(=O)O)Nc1ccc(F)cc1 (stereo not shown) — higher, 13.5%
- Cc1nc(CNC(=O)c2ccccc2OC2CCN(S(C)(=O)=O)CC2)cs1 — lower, 4.67%
- Cc1ccc(S(=O)(=O)N(C)CC(=O)N2CCOCC2)cc1 — higher, 11.1%
- CCCCc1ccc(Nc2nc(CCC)cc(=O)[nH]2)cc1 — higher, 11.4%
- CCN(CC)S(=O)(=O)c1ccc(N2CCCC2)c(NC(=O)CN2C(=O)NC3(CCCC3)C2=O)c1 — lower, 9.03%
- CN1CCN(c2cc(-c3cc(O)c4ncccc4c3)ccn2)CC1 — lower, 9.28%
- Cc1ccccc1/C=N/NC(=O)c1cccnc1 — lower, 2.74%
- COC(=O)c1c(NC(=O)c2ccco2)sc(C(=O)N2CCCC2)c1C — lower, 8.01%
- O=C(COC(=O)c1ccc(NS(=O)(=O)c2cccs2)cc1O)NC1CCCCC1 — higher, 17.1%
- Cc1ccc(NC(=O)CSc2nnc(CNC(=O)C34CC5CC(CC(C5)C3)C4)n2-c2ccc(F)cc2)cc1 — higher, 19.5%
- C=C(C)COc1ccc2c(C)c(CC(=O)N3C[C@H]4C[C@@H](C3)c3cccc(=O)n3C4)c(=O)oc2c1 — lower, -27.2%
- O=C1CSc2ccc(S(=O)(=O)NCc3ccccc3Cl)cc2N1 — higher, 12.2%
- COc1ccc(NC(=O)/C=C/c2ccc(S(=O)(=O)N3CCOCC3)cc2)cc1 — lower, 7.54%
- CCOc1ccccc1C1NC(=O)CCC1[N+](=O)[O-] (stereo not shown) — higher, 14.7%
- CCCNS(=O)(=O)c1ccc(OCC(=O)NCCC2=CCCCC2)cc1 — lower, -1.06%
- Clc1ccc(Cn2ccc(C3CC3)n2)cc1 — lower, 7.59%
- Cc1ccc(CNC(=O)C(=O)NCC2CCCN2S(=O)(=O)c2cccs2)cc1 (stereo not shown) — lower, -1.11%
- Cc1ccc(NC(=O)CC(C)N2CCCC2)cc1 (stereo not shown) — higher, 12.5%
- CNc1c(NS(=O)(=O)c2ccc(F)c(Cl)c2)c(=O)oc2ccccc12 — lower, 7.81%
- COc1ccc2cc(C(=O)C3CCCN(Cc4cnc(C)s4)C3)ccc2c1 (stereo not shown) — lower, 9.99%
- O=C(CSc1ncnc2scc(-c3ccccc3)c12)NCc1ccc2c(c1)OCO2 — higher, 18.3%
- Cc1cc(NC(=O)[C@H](C)NC(=O)c2ccco2)ccc1Br — lower, 10.1%
- NNC(=O)c1cc2cc(OC(F)(F)F)ccc2[nH]1 — lower, 4.44%
- CC(C)N(Cc1ccccc1)C(=O)/C=C/c1ccccc1[N+](=O)[O-] — lower, 8.29%
- COc1ccc(-c2noc(=O)n2Cc2ccccc2F)cc1 — lower, 8.92%
- N#CC1=C(N)OC2=C(C(=O)CCC2)C1c1ccc2c(c1)OCO2 (stereo not shown) — higher, 12.3%
- Cc1ccc(CN(C)CC(=O)NC(C)c2ccccc2)cc1 (stereo not shown) — lower, 10%
- CCN(CC)c1ccc(NS(=O)(=O)c2ccc3c(c2)oc(=O)n3C)c(C)c1 — higher, 11.7%
- Cc1ccc(NC(=O)CN(C)C2CCCCC2)cc1Br.Cl — higher, 14.6%
- CCC1=Nc2cc(C(=O)NCCCN3CCOCC3)ccc2Sc2ccccc21 — lower, 7.57%
- Cc1ccc(CCC(=O)Nc2ncc(Cc3cccc(Cl)c3Cl)s2)o1 — higher, 34.2%
- NC(=O)SCC(=O)Nc1cccc(Cl)c1 — lower, 10.2%
- Cc1ccc(C(=O)N(CC(=O)NC2CCCC2)Cc2cccs2)s1 — lower, -5.01%
- CN1/C(=C\C=N\NC(=O)c2cccnc2)C(C)(C)c2ccccc21 — higher, 12.4%
- COc1ccc(/C=N/n2cc(-c3ccccc3)nc2N)cc1 — lower, -3.53%
- O=C(NNc1nc(Nc2ccccc2)nc(N2CCOCC2)n1)Nc1ccc(Cl)cc1 — higher, 12.3%
- CC(C)C(c1nnnn1Cc1ccc(F)cc1)N1CCN(C(=O)c2ccco2)CC1 (stereo not shown) — lower, -14.8%
- Cn1cnc(S(=O)(=O)Nc2cc(C(F)(F)F)ccc2N2CCOCC2)c1 — higher, 24.9%
- Cc1noc(C)c1/C=N/Nc1ccc2ccccc2n1 — lower, -2.62%
- O=C(C1=NN[C@@H]2C(=O)N(Cc3ccccc3)C(=O)[C@H]12)c1ccc([N+](=O)[O-])cc1 — lower, -5.6%
